Data as given in PubChem BioAssay AID686979 (National Center for Advancing Translational Sciences (NCATS), 2013).
Among all 420,000 compounds or so, about 50,000 (12%) were called active. Inconclusive means that the source gave no clear call. Such entries were picked first, then a sample of the others. Calls follow the shape of the dose curve; as a rule, active = well fitted inhibition curve with a large enough effect; inconclusive = small, poorly fitted or top-dose-only effect; inactive = flat fitted curve, though single readings scatter. No potency is given beside an inconclusive call; the fits are too rough.

test: qHTS for Inhibitors of human tyrosyl-DNA phosphodiesterase 1 (TDP1): qHTS in cells in presence of CPT; conditions: chicken DT40 Tdp1-/-;hTDP1 cells + 20 nM CPT, ATP luminescence, 48 h; activity change, negative = growth inhibition: at 46.2 µM (top of the series); also: nearly all actives have a fitted effect of over 55% in size
In short: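 Cell growth measured by CellTiter-Glo luminescence after a minimum 48 h, 37 C compound exposure with 20 nM CPT in Tdp1-knockout DT40 cells stably expressing hTDP1, seeded 400/well; qHTS titration format.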
% is scaled to controls: 0 for no effect and ±100 for the full control effect; potency is read from the fitted curve at half-maximal effect; tags tell the direction and shape of the fitted curve.

For `CCCCC(=O)Nc1cccc(-c2nnc(-c3ccccc3)o2)c1`, which Potency is on record?
Its Potency is active: 23.1 µM.

Which Potency does the source give for `CC(C)(C)c1ccc(OCCC(=O)OCC(=O)NC2CCS(=O)(=O)C2)cc1` (stereo unspecified) here?
The Potency was inconclusive [inhibitor, single point].

Which “activity change, negative = growth inhibition” value does the source give for `COc1cc2c(cc1OC)CN(C(=O)CNS(=O)(=O)c1ccc(C)c(C)c1)CC2` here?
Its value is inactive: 0.27%.

Which “activity change, negative = growth inhibition” value does the source give for `COc1ccc(NC(=O)c2c(-c3ccc(C)cc3)nnc3ccccc23)cc1OC` here?
The value was inactive: -14.6%.

Which Potency does the source give for `COc1ccnc2c1c(=O)n(Cc1c(F)cccc1Cl)c(=O)n2C` here?
Its Potency is inconclusive [inhibitor, single point].

Which Potency does the source give for `O=C(CSc1nc2c(c(C(F)(F)F)n1)CCc1ccccc1-2)NCc1ccccc1` here?
Its Potency is inconclusive [inhibitor, single point].

With `CON(C)c1nc(OCCNC(=O)OCc2ccc(Cl)cc2Cl)nc(N(C)C)n1` as the compound, how does the Potency read?
Its Potency is active: 16.4 µM.

For `Cc1coc2cc3oc(=O)c(CCC(=O)NCCN4CCOCC4)c(C)c3cc12`, which Potency is on record?
Its Potency is inconclusive [inhibitor, partial curve].

Which activity change, negative = growth inhibition does the source give for `Cc1ccc(NC(=O)CN(C)S(=O)(=O)c2cccs2)cc1C` here?
Its activity change, negative = growth inhibition is inconclusive: -32.9% [inhibitor].

With `Cc1nn(-c2ccccc2)c2sc(C(=O)NCCN3CCOCC3)cc12` as the compound, how does the Potency read?
The Potency was inconclusive [inhibitor, single point].

For `COc1ccccc1-c1cc2nc(NCCc3ccncc3)ccn2n1`, which Potency is on record?
Its Potency is inconclusive [inhibitor, single point].

With `CCNc1ncnc2c1cnn2C` as the compound, how does the “activity change, negative = growth inhibition” value read?
Its value is inactive: -1.11%.

With `CCOC(=O)Nc1sc(C)c(C)c1C(=O)OCC` as the compound, how does the Potency read?
Its Potency is inconclusive [inhibitor, partial curve].

With `CCCC(=O)N1CCCC(C(=O)c2cccc(OC(C)C)c2)C1` (stereo unspecified) as the compound, how does the activity change, negative = growth inhibition read?
Its activity change, negative = growth inhibition is inconclusive: -33.9% [inhibitor].

With `CCN1C(=O)C(O)(CC(=O)c2cccc(-n3cccc3)c2)c2ccccc21` (stereo unspecified) as the compound, how does the Potency read?
Its Potency is inconclusive [inhibitor, single point].

With `O=C(Cc1ccccc1)NCC(=O)OCC(=O)c1cccs1` as the compound, how does the “activity change, negative = growth inhibition” value read?
Its value is inactive: -14.4%.

For `C/C=C/c1ccc(OCC(=O)Nc2cc(Cl)ccc2-n2cncn2)c(OC)c1`, which Potency is on record?
The Potency was inconclusive [inhibitor, single point].

For `O=C(Nc1ccc2c(c1)OCO2)C1CC(c2ccccc2Cl)=NO1` (stereo unspecified), which Potency is on record?
The Potency was inconclusive [inhibitor, single point].

For `CC1(C)CCC/C(=C\c2ccccc2)C1=O`, which “activity change, negative = growth inhibition” value is on record?
The value was inactive: -20.3%.

Which “activity change, negative = growth inhibition” value does the source give for `O=C(CCCCCn1c(=S)[nH]c2cc3c(cc2c1=O)OCO3)N1CCN(C(=O)c2ccco2)CC1` here?
The value was inactive: -22.9%.

Which Potency does the source give for `CCOC(=O)c1[nH]c(C)c(C(=O)Nc2ccc(C)c(C)c2)c1C` here?
Its Potency is inconclusive [inhibitor, single point].

Which Potency does the source give for `Nc1nc(SCc2ccc(Cl)c(Cl)c2)n[nH]1` here?
Its Potency is inconclusive [inhibitor, single point].

With `CCCOc1ccc(NC(=O)CC2C(=O)N(c3cccc(OC)c3)C(=O)N2CCc2ccncc2)cc1` (stereo unspecified) as the compound, how does the Potency read?
Its Potency is inconclusive [inhibitor, single point].

Which Potency does the source give for `CCCS(=O)(=O)c1c(S(=O)(=O)CCC)c2c(N)cccn2c1C(=O)c1ccc(Br)cc1` here?
The Potency was active: 16.4 µM.

For `O=C(COC(=O)C(c1ccccc1)c1ccccc1)NCc1ccco1`, which Potency is on record?
The Potency was inconclusive [inhibitor, single point].

Which Potency does the source give for `N#C/C(=C/c1ccc(Oc2ccc([N+](=O)[O-])cn2)cc1)C(=O)N1CCOCC1` here?
The Potency was inconclusive [inhibitor, single point].

Which Potency does the source give for `CCN(CC)CCN(Cc1cc2cc3c(cc2[nH]c1=O)OCO3)C(=S)NCc1ccco1` here?
The Potency was inconclusive [inhibitor, single point].

Which Potency does the source give for `COc1ccccc1N1CCN(c2nc(CNC(=O)c3sc(C)nc3C)nc3ccccc23)CC1` here?
The Potency was active: 6.51 µM.

For `CC(Oc1ccc(-c2ccccc2)c(F)c1)c1ccn(S(=O)(=O)c2ccc(F)cc2)n1` (stereo unspecified), which Potency is on record?
Its Potency is inconclusive [inhibitor, single point].

For `CCc1ccc2nc(SCC(=O)N3CCCCC3)c(C#N)cc2c1`, which Potency is on record?
Its Potency is inconclusive [inhibitor, single point].

For `Cc1cc(C)cc(N(CC(=O)Nc2ccccc2-c2ccccc2)S(=O)(=O)c2ccccc2)c1`, which “activity change, negative = growth inhibition” value is on record?
Its value is inactive: -27.6%.

Which Potency does the source give for `S=c1[nH]cc(-c2ccccc2)n1-c1ccccc1Cl` here?
Its Potency is inconclusive [inhibitor, single point].

For `Cc1ccc(C(=O)NCC(=O)OC(C)C(=O)Nc2ccc(N3CCOCC3)cc2)s1` (stereo unspecified), which “activity change, negative = growth inhibition” value is on record?
The value was inactive: -21.5%.

With `O=C(CSc1nnc(C2CC2)n1Cc1ccccc1)c1ccc(S(=O)(=O)N2CCOCC2)cc1` as the compound, how does the Potency read?
Its Potency is inconclusive [inhibitor, single point].

With `CCN(CC)C(=O)[C@H]1C[C@H](CC(=O)NCc2ccco2)C(=O)N2CCc3c([nH]c4ccc(Cl)cc34)[C@]12C` as the compound, how does the Potency read?
Its Potency is active: 16.4 µM.

Which “activity change, negative = growth inhibition” value does the source give for `Cc1ccc2c(cnn2C(=O)CCC(=O)N2CCCCC2C)c1` (stereo unspecified) here?
The value was inactive: 0.9%.

Which Potency does the source give for `CC(C)Oc1cc(F)ccc1-c1cc(C(=O)NC2CCCCC2)[nH]n1` here?
The Potency was active: 20.6 µM.

With `CCOc1ccc(N(CC(=O)Nc2cccc(OC)c2)S(=O)(=O)c2c(C)noc2C)cc1` as the compound, how does the Potency read?
Its Potency is active: 13 µM.

With `COCC(C)NC(=S)NCCc1ccc(Cl)cc1Cl` (stereo unspecified) as the compound, how does the “activity change, negative = growth inhibition” value read?
The value was inactive: -26.8%.

For `NCc1csc(Nc2ccc(C(=O)c3ccccc3)cc2)n1`, which Potency is on record?
The Potency was active: 0.92 µM.

For `C=C1CCC2C(C)(C)[C@H](O)CC[C@@]2(C)[C@@H]1COc1cc(=O)oc2ccccc12` (stereo partly specified), which Potency is on record?
The Potency was inconclusive [inhibitor, single point].

Which “activity change, negative = growth inhibition” value does the source give for `Cc1ccc(-n2[nH]c(=O)c(-c3ccccn3)c2C)cc1` here?
The value was inactive: -0.672%.

With `CN(C)CCN1CCN(C2CN(Cc3ccccc3)S(=O)(=O)C2)CC1` (stereo unspecified) as the compound, how does the “activity change, negative = growth inhibition” value read?
Its value is inactive: -17.1%.

For `COc1ccc(OC)c(NC(=O)C2(C)CCN2C(=O)Cc2ccc(Cl)cc2Cl)c1` (stereo unspecified), which Potency is on record?
The Potency was active: 20.6 µM.

Which Potency does the source give for `CCN(CC)CCN(Cc1cc2ccc(C)c(C)c2[nH]c1=O)C(=S)NCc1ccco1` here?
The Potency was inconclusive [inhibitor, partial curve, poor fit].

With `Cc1csc2nc(CNS(=O)(=O)c3ccc4c(c3)OCCO4)cn12` as the compound, how does the Potency read?
The Potency was inconclusive [inhibitor, single point].
